# Source: the BET-seq Pho4 binding data (Le et al. 2018)
# This is one part of the list. The energies were worked out here from pooled read counts, against the library average; single values are noisy.
# Target: T1, Pho4 (S. cerevisiae) (UniProt P07270)
# T1 sequence: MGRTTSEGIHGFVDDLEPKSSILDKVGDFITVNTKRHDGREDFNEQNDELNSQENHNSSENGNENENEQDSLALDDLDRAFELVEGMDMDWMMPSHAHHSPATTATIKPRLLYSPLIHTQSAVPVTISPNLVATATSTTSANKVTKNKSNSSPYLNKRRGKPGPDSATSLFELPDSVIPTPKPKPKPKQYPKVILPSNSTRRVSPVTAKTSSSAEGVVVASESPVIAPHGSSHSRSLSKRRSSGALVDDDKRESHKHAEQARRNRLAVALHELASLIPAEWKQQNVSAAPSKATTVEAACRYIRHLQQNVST
# Assay: relative binding free energy (BET-seq); higher = weaker binding
# Details: reference: library average
row,Sequence,relative binding free energy [kcal/mol]
1,CCTGGCACGTGAAGTT,0.24
2,CAAATCACGTGAGGGG,0.29
3,TGTATCACGTGGAGCT,0.11
4,CAGTGCACGTGACGTG,0.2
5,TGGGTCACGTGACAGA,0.29
6,TGGAGCACGTGCAGTG,0.02
7,GGGTTCACGTGTTTGG,0.37
8,TTCAGCACGTGGGTTC,-0.13
9,ATATCCACGTGGTTGT,-0.07
10,TGGTTCACGTGCTATC,0.32
11,TTGCACACGTGTAGGT,0.02
12,ATACGCACGTGCGGGT,-0.15
13,CTTACCACGTGTTTGG,0.12
14,GGTGTCACGTGATCGT,0.09
15,GTAGACACGTGATGAG,0.05
16,GAATACACGTGGTTGT,0.06
17,AAAGCCACGTGTGTTG,-0.03
18,CCATGCACGTGTGGGG,0.02
19,GTAGTCACGTGGGTTG,0.02
20,TTGTGCACGTGGTAGC,-0.06
21,GGCGTCACGTGTAGTG,0.2
22,GAGTTCACGTGGCTTT,0.36
23,GTTACCACGTGTGATG,0.14
24,GTTCGCACGTGTTGTA,-0.02
25,TTATTCACGTGAGACT,0.51
26,ATGCTCACGTGAGATG,0.37

row,Sequence,relative binding free energy [kcal/mol]
1,AAGATCACGTGGTTTT,0.18
2,TTATTCACGTGTTATG,0.22
3,CGATTCACGTGGCTGG,0.24
4,GACGTCACGTGGTTGT,0.14
5,GTGGGCACGTGACTGA,0.05
6,GAGGACACGTGTGAGA,0.31
7,GTACGCACGTGTCTGT,0.01
8,CGCTGCACGTGCGGGG,-0.04
9,GGCGGCACGTGAAAGG,0.3
10,TTGTACACGTGGGTAT,0.01
11,GAATACACGTGTGGTT,0.12
12,TCTTTCACGTGTTTAT,0.27
13,GTTAGCACGTGGCTGA,0.04
14,CGCGGCACGTGTCGTG,-0.09
15,CTGAGCACGTGTTGGC,-0.06
16,CGTGGCACGTGGTTTC,-0.21
17,GGGGGCACGTGAAGGA,0.19
18,TTAGACACGTGTAGTG,0.06
19,CTATTCACGTGTTTTA,0.15
20,CGGGTCACGTGTCGTA,0.1
21,GCGTACACGTGGTTTT,0.23
22,TCTGACACGTGGGGTA,-0.15
23,CGGTTCACGTGTGCTG,0.38
24,GTATCCACGTGTTAGT,0.11
25,TATGTCACGTGGTGCC,0
26,TTTCACACGTGTTTGC,0.13

row,Sequence,relative binding free energy [kcal/mol]
1,TGGGTCACGTGCGCGC,0.03
2,CGATTCACGTGTGGGC,0.29
3,AGCTACACGTGTGTTG,0.04
4,TTACTCACGTGTGCGG,0.14
5,GAGGACACGTGTGGTT,0.12
6,GGATGCACGTGGGTAA,-0.07
7,TCTGGCACGTGTGGGT,-0.04
8,GCGGACACGTGAAGTG,0.34
9,CTCTTCACGTGGAGGT,0.26
10,GTGCGCACGTGGAGTG,0
11,AAGCTCACGTGATGTT,0.44
12,GGATTCACGTGAGGCT,0.41
13,TGGTTCACGTGTAAGG,0.45
14,GGGTCCACGTGTTGAG,0.09
15,TTAGACACGTGTTAAT,0.01
16,TTCAGCACGTGGTAAT,-0.02
17,AGGTGCACGTGCGAGG,-0.04
18,GATCGCACGTGGTTTG,-0.01
19,CGTGTCACGTGTGTAA,0.04
20,GTGGCCACGTGTGTGT,-0.03
21,AGTCTCACGTGTGTTA,0.04
22,TTAGTCACGTGGAAGG,0.11
23,ACGGTCACGTGTGTGA,0.12
24,AATGTCACGTGTATCG,0.21
25,CTCGTCACGTGATGGT,0.09
26,CTTGTCACGTGGACGG,-0.01

row,Sequence,relative binding free energy [kcal/mol]
1,TCTTTCACGTGTGAGT,0.22
2,TGTGTCACGTGCTTAA,0.16
3,ATGTACACGTGGATTA,0.03
4,AGAGTCACGTGTGTGC,0.1
5,TAAGTCACGTGTTTTG,0.1
6,AATTGCACGTGGATAG,-0.07
7,AATTGCACGTGTTCGT,-0.02
8,GTATTCACGTGTATGG,0.21
9,AATGGCACGTGGAATT,0.06
10,TTGTTCACGTGAACGG,0.4
11,AGTACCACGTGGGTGG,-0.18
12,GCCTGCACGTGTGTTG,0.03
13,TGGACCACGTGGGGGA,-0.28
14,TTCTTCACGTGGGAGT,0.29
15,TGTTGCACGTGCCTGG,-0.02
16,AAGTGCACGTGTATTG,0
17,GGAAGCACGTGTATTG,-0.14
18,GTGGCCACGTGAGTGG,0.29
19,GTGATCACGTGATGGA,0.4
20,GAGGACACGTGATGGT,0.22
21,TCGATCACGTGTAGGG,0.2
22,CGGTGCACGTGGGTGA,-0.17
23,ATGGGCACGTGTGATT,-0.04
24,CCAGGCACGTGTGGTG,-0.01
25,TTTCGCACGTGTTGAA,0.05
26,AGGGGCACGTGGGAGC,-0.19

row,Sequence,relative binding free energy [kcal/mol]
1,ATGGTCACGTGGCCGG,0
2,TGTGTCACGTGAGGAC,0.22
3,GTCAGCACGTGGCGTT,0
4,TGAGGCACGTGGCTTT,-0.2
5,GAGCGCACGTGTAAGG,0.14
6,CTTTTCACGTGATTAA,0.29
7,GATTGCACGTGAATGT,0.11
8,AGGGGCACGTGCTGTA,-0.17
9,TTAATCACGTGTTTAA,-0.03
10,AGGTTCACGTGGCGGA,0.22
11,CGGTTCACGTGTGTGT,0.37
12,TGAGGCACGTGCTAGG,-0.19
13,GGTTGCACGTGTTGTA,0.12
14,ATATACACGTGTTTGG,-0.08
15,GATGTCACGTGTTGGT,0.19
16,GTAAGCACGTGTTGTC,0.11
17,ATTTTCACGTGAGCGA,0.4
18,GGCTACACGTGGTATG,0.13
19,GATATCACGTGAGGTT,0.45
20,GGTACCACGTGGTTTG,-0.09
21,ATGTGCACGTGGGGGG,-0.14
22,CGAGGCACGTGGTTCG,-0.08
23,AGGTCCACGTGGTAGG,-0.06
24,ATGCTCACGTGGATTG,0.14
25,CGTAGCACGTGAGGAT,0.24
26,CATGTCACGTGCATTG,0.18

row,Sequence,relative binding free energy [kcal/mol]
1,ATGGGCACGTGTCTGA,0.03
2,GTGATCACGTGGTAGC,0.03
3,GGTCGCACGTGACGTG,0.21
4,AGGTACACGTGAAGGA,0.3
5,TGTCGCACGTGAAAGG,0.25
6,TATTACACGTGAGTTA,0.33
7,CTTTTCACGTGTCTTG,0.29
8,TGAAGCACGTGCGGTG,-0.19
9,ATGGTCACGTGAGTGT,0.23
10,TTTTTCACGTGCGTGG,0.23
11,CTTGTCACGTGGGCTT,-0.16
12,GAGGGCACGTGATTGA,0.1
13,CGGGACACGTGGGCGT,-0.18
14,GATTTCACGTGTGCGT,0.34
15,GCATTCACGTGGTTTG,0.2
16,AGGAACACGTGGTGAA,0.06
17,CAGGTCACGTGAATGG,0.26
18,TAGTTCACGTGAGCTG,0.44
19,CAACGCACGTGTGGGT,-0.07
20,TGTGACACGTGGTCGC,-0.06
21,TGGAGCACGTGGTCAG,-0.22
22,CGGGTCACGTGATGGC,0.31
23,TTAGCCACGTGCGGGG,-0.03
24,GTAGACACGTGCTTGT,0.06
25,TAGGCCACGTGAGGGT,0.11
26,TTTTGCACGTGTAGAC,0.12

row,Sequence,relative binding free energy [kcal/mol]
1,GGGTTCACGTGACGAG,0.49
2,ATTTTCACGTGTGGCG,0.32
3,TGACGCACGTGGTGTA,-0.24
4,CTTTGCACGTGGGAAA,0.01
5,ATGAACACGTGTGGGA,0.14
6,GGTGCCACGTGGCGGA,-0.07
7,TTGATCACGTGGAGGA,0.18
8,ATTTCCACGTGAGGGT,0.4
9,ATTTTCACGTGCGCGG,0.35
10,AGGTTCACGTGCGATT,0.3
11,AGTGCCACGTGATAGG,0.16
12,TTGGCCACGTGTAGGA,-0.02
13,TTATGCACGTGTAGAA,0.03
14,TGGGGCACGTGGGAGT,-0.12
15,GTGTACACGTGGTGGG,0.06
16,TGTAACACGTGGGGGG,0
17,GTAGGCACGTGGTAAG,-0.05
18,AGTGGCACGTGTTAAT,0.04
19,TGGGTCACGTGTACTA,0.03
20,TGCCTCACGTGTTTGT,0.18
21,CGAGGCACGTGTGAGC,0.02
22,TAGGGCACGTGTTGGT,-0.09
23,CGCAGCACGTGAGGTT,0.25
24,GGGGCCACGTGGCTGT,-0.16
25,TGATGCACGTGGCATG,-0.24
26,GCTATCACGTGGTCGG,0.24

row,Sequence,relative binding free energy [kcal/mol]
1,TATAACACGTGGAGGT,-0.03
2,GTGTACACGTGGGAGC,-0.09
3,ATTTTCACGTGAGGGG,0.34
4,TTTCACACGTGTTATT,0.02
5,TGGTGCACGTGAAGGC,0.34
6,TGGCTCACGTGGTTGT,0.08
7,CTTATCACGTGTTTCG,0.16
8,TGTATCACGTGGCCGG,-0.15
9,GAGGGCACGTGTCGGT,-0.05
10,AATCGCACGTGGGGAG,0.05
11,GGGAGCACGTGGGCGG,-0.11
12,GTGCACACGTGTATTG,0.23
13,GCAGGCACGTGAATGT,0.28
14,ATTTGCACGTGGTGGT,0.07
15,ATGAACACGTGTGGAA,0.05
16,GATTACACGTGTAAGT,0.27
17,ATGGCCACGTGGGTTA,-0.23
18,ATGTGCACGTGCTGAG,-0.01
19,AGTAACACGTGTGGGT,0.12
20,ATCTTCACGTGTGGCT,0.21
21,GTAGGCACGTGGAGAG,0.04
22,GCCTGCACGTGTGGGT,0.03
23,GAGTGCACGTGGACGT,0.08
24,GAGTGCACGTGAGTCG,0.2
25,TTAGTCACGTGTAGCG,0.08
26,ATATGCACGTGACGGT,0.14

row,Sequence,relative binding free energy [kcal/mol]
1,TTTACCACGTGGTGTC,-0.12
2,ACAGACACGTGGGGGG,-0.15
3,GTGTACACGTGGTTGC,-0.02
4,TGCCACACGTGTGGTG,-0.03
5,TATTGCACGTGGTGTC,-0.02
6,AAGGGCACGTGGCCTG,-0.21
7,TGTGCCACGTGTGGTT,-0.28
8,AATATCACGTGAAGTA,0.41
9,CAATTCACGTGCTGGG,0.31
10,TTTATCACGTGTGTGC,0.2
11,GGGCCCACGTGGGGGC,-0.15
12,TGTTTCACGTGGTCCT,0.16
13,AGTTACACGTGGGAGC,0.07
14,GTATACACGTGGGAGC,0.02
15,TTAGGCACGTGAAAAG,0.19
16,CGGAACACGTGTGTGG,0.08
17,GGACGCACGTGGTCTG,-0.1
18,GTATGCACGTGTGCGT,0.01
19,AGCTTCACGTGTTTTT,0.34
20,GTCGGCACGTGAATGT,0.26
21,GACCGCACGTGGTGGG,-0.14
22,TCGGGCACGTGGTTGG,-0.06
